This passage reports cAMP reporter score and surface expression score results from the GPR68 mutational scans of Howard et al. (2025).

The least precise scores are not listed. Two further conditions of the source, in which the scores hardly spread, are not listed. In variant names, del marks residues removed and ins residues inserted between the two positions. For some assays here: How much ogerin was present is not stated here.

Sequences and labels used below:
B1: GPR68, Q15743 (parent)
chain: MGNITADNSSMSCTIDHTIHQTLAPVVYVTVLVVGFPANCLSLYFGYLQIKARNELGVYLCNLTVADLFYICSLPFWLQYVLQHDNWSHGDLSCQVCGILLYENIYISVGFLCCISVDRYLAVAHPFRFHQFRTLKAAVGVSVVIWAKELLTSIYFLMHEEVIEDENQHRVCFEHYPIQAWQRAINYYRFLVGFLFPICLLLASYQGILRAVRRSHGTQKSRKDQIQRLVLSTVVIFLACFLPYHVLLLVRSVWEASCDFAKGVFNAYHFSLLLTSFNCVADPVLYCFVSETTHRDLARLRGACLAFLTCSRTGRAREAYPLGAPEASGKSGAQGEEPELLTKLHPAFQTPNSPGSGGFPTGRLA

In data set [1] the parent is B1. In words: cAMP reporter score (Enrich2 score, wild type = 0); higher = more signal; HEK293T, FACS bins.
The variants in data set [2] derive from B1. In words: surface expression score (Enrich2 score, wild type = 0); higher = more signal; HEK293T, FACS bins.

As to G2_N3insGS, the cAMP reporter score in data set [1] (pH 5.5) is 0.026; in data set [1] (pH 6), -0.206; in data set [1] (pH 6, modulator: ogerin), -0.086; in data set [1] (pH 6.5, modulator: ogerin), 0.339. The surface expression score in data set [2] was -0.294.
Consider MGAITADNSSMSCTIDHTIHQTLAPVVYVTVLVVGFPANCLSLYFGYLQIKARNELGVYLCNLTVADLFYICSLPFWLQYVLQHDNWSHGDLSCQVCGILLYENIYISVGFLCCISVDRYLAVAHPFRFHQFRTLKAAVGVSVVIWAKELLTSIYFLMHEEVIEDENQHRVCFEHYPIQAWQRAINYYRFLVGFLFPICLLLASYQGILRAVRRSHGTQKSRKDQIQRLVLSTVVIFLACFLPYHVLLLVRSVWEASCDFAKGVFNAYHFSLLLTSFNCVADPVLYCFVSETTHRDLARLRGACLAFLTCSRTGRAREAYPLGAPEASGKSGAQGEEPELLTKLHPAFQTPNSPGSGGFPTGRLA [N3A], for which the cAMP reporter score is 0.126 in data set [1] (pH 5.5); -0.553 in data set [1] (pH 6); 0.239 in data set [1] (pH 6, modulator: ogerin); -0.943 in data set [1] (pH 6.5, modulator: ogerin). The surface expression score in data set [2] is -0.219.
Regarding MGCITADNSSMSCTIDHTIHQTLAPVVYVTVLVVGFPANCLSLYFGYLQIKARNELGVYLCNLTVADLFYICSLPFWLQYVLQHDNWSHGDLSCQVCGILLYENIYISVGFLCCISVDRYLAVAHPFRFHQFRTLKAAVGVSVVIWAKELLTSIYFLMHEEVIEDENQHRVCFEHYPIQAWQRAINYYRFLVGFLFPICLLLASYQGILRAVRRSHGTQKSRKDQIQRLVLSTVVIFLACFLPYHVLLLVRSVWEASCDFAKGVFNAYHFSLLLTSFNCVADPVLYCFVSETTHRDLARLRGACLAFLTCSRTGRAREAYPLGAPEASGKSGAQGEEPELLTKLHPAFQTPNSPGSGGFPTGRLA [N3C], the cAMP reporter score in data set [1] (pH 5.5) was -0.634; in data set [1] (pH 6), -1.34; in data set [1] (pH 6, modulator: ogerin), -0.899; in data set [1] (pH 6.5, modulator: ogerin), -0.46. Moreover, the surface expression score in data set [2] is -1.56.
On to G2del, for which the cAMP reporter score was -0.473 in data set [1] (pH 5.5); -0.867 in data set [1] (pH 6); -0.762 in data set [1] (pH 6, modulator: ogerin); -0.88 in data set [1] (pH 6.5, modulator: ogerin). Further, in data set [2], the surface expression score is -1.24.
